Among all 410,000 compounds or so, about 1,200 (0.29%) were called active. This list was built around the results that the source calls inconclusive (neither active nor inactive); the mix of calls is not that of the screen. Calls come from the whole dose curve; as a rule, active = well fitted activation curve with a large enough effect; inconclusive = small, poorly fitted or top-dose-only effect; inactive = flat fitted curve, though single readings scatter. A potency beside an inconclusive call is a rough fit, not a confirmed value.
Assay: qHTS of Nrf2 Activators; note: nearly all actives have a fitted effect of over 65% in size
Conditions: AREc32 ARE-luciferase reporter (MCF7-derived line), luminescence, 24 h; activation: at 46.1 µM (top of the series)
Method in brief: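 Luciferase luminescence (Steady-Glo, 30 min at room temperature) served as the read-out of ARE activation in AREc32 cells treated with compounds for 24 hr at 37 deg C.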
Potency is the fitted concentration of half-maximal effect; tags give direction and shape of the fitted curve.

Potency, inconclusive:
Cc1noc(C)c1/C=N/Nc1ccccn1 20 µM [activator, partial curve, poor fit]
CC(=O)Nc1nc(-c2ccccc2)cc(-c2ccco2)c1C#N 1.58 µM [activator, full curve, poor fit]
CCOCCCNC(=O)/C(C#N)=C/c1ccc([N+](=O)[O-])o1 15.8 µM [activator, single point]
Cc1ccc(N/N=C2\CS(=O)(=O)N(C)c3ccsc32)cc1 12.6 µM [activator, partial curve, poor fit]
Cc1nc(Nc2cccc(O)c2)c2c3c(sc2n1)CCC3 3.16 µM [activator, partial curve, poor fit]
Cc1ccc2oc(-c3ccco3)nc2c1 17.8 µM [activator, single point]
CNC(=S)N/N=C1\C(=O)c2cccc3cccc1c23 2.51 µM [activator, full curve, poor fit]
Clc1cccc(Nc2ncnc3ccc(Br)cc23)c1 1.26 µM [activator, partial curve, poor fit]
Cc1ccc(-c2csc(/C(C#N)=C/c3ccccc3Cl)n2)cc1 11.2 µM [activator, partial curve, poor fit]
O=C1/C(=C\c2cccnc2)SC(=S)N1C1CCS(=O)(=O)C1 (stereo unspecified) 12.6 µM [activator, single point]
COc1ccc(Cc2nnc(NC(=O)c3ccco3)s2)cc1OC 35.5 µM [activator, partial curve, poor fit]
COc1ccc(/C=C(/C(=O)c2cccs2)N2C=CC=CC2=C(C#N)C#N)cc1 15.8 µM [activator, partial curve, poor fit]
O=C(Nc1ccc(S(=O)(=O)Nc2nccs2)cc1)c1c(F)c(F)c(F)c(F)c1F 25.1 µM [activator, single point]
Cc1ccc(N=C2C(=O)Nc3ccc(Br)cc32)cc1 28.2 µM [activator, single point]
Clc1ncnc2scc(C3COc4ccccc4O3)c12 (stereo unspecified) 25.1 µM [activator, single point]
O=C(/C=C/c1ccco1)NC(=S)Nc1nc(-c2ccc(Cl)cc2)cs1 2.82 µM [activator, full curve, poor fit]
CCC(C)c1ccc(O)c(NC(=O)c2cccnc2)c1 (stereo unspecified) 15.8 µM [activator, single point]
O=C1C(Cl)=C(Nc2cccc(O)c2)C(=O)N1Cc1ccccc1 17.8 µM [activator, single point]
c1csc(-c2nc3ccccn3c2NC2CCCCC2)c1 25.1 µM [activator, single point]
CN(C)c1cc(-c2cccc(C(F)(F)F)c2)oc(=O)c1Cl 11.2 µM [activator, partial curve, poor fit]
CCCOc1ccc(C(=O)CCN2CCN(C(=O)OCC)CC2)cc1 12.6 µM [activator, partial curve, poor fit]
Cc1[nH]n(-c2ccccc2)c(=O)c1N=Nc1ccccc1O 1 µM [activator, full curve, poor fit]
COc1cc2c3nnc(-c4ccc(F)cc4)c-3cn(Cc3ccccc3F)c2cc1OC 10 µM [activator, partial curve, poor fit]
Oc1ccccc1/C=N/n1c2ccccc2c2ccccc21 10 µM [activator, partial curve]
C/C(=N/OC(=O)c1ccc(C)cc1)c1cccs1 17.8 µM [activator, partial curve, poor fit]
O=C(N/N=C/c1sc(=O)n(-c2ccccc2)c1Cl)c1ccncc1 12.6 µM [activator, partial curve, poor fit]
COCCCNC(=S)N/N=C/c1ccccc1O 15.8 µM [activator, single point]
NC(=O)CCCn1c(C(=O)c2ccc(Cl)cc2)c2ccc([N+](=O)[O-])cc2[n+]1[O-] 20 µM [activator, single point]
O=C(C=Cc1ccc2c(c1)OCO2)c1ccccc1 31.6 µM [activator, single point]
CCC(=O)Oc1ccc(C(=O)Nc2cccc(NC(=O)c3ccco3)c2)cc1 12.6 µM [activator, partial curve, poor fit]

Potency, inactive:
COc1ccc(-c2nc(CS(=O)CC(=O)NCc3ccc(F)cc3)c(C)o2)cc1OC (stereo unspecified)
CN(C)c1ccc(/C=C/c2nc3ccccc3c(=O)[nH]2)cc1
COc1ccc(/C=C2\Sc3ccc(C(=O)N4CCCC4)cc3N(C)C2=O)cc1OC
Cc1ccc(C(=O)CSC2=C(C#N)C(c3ccco3)C3=C(CC(C)(C)CC3=O)N2)cc1 (stereo unspecified)
Clc1ccc(CCNC(c2nnc(-c3ccccc3)o2)c2ccccc2Cl)cc1 (stereo unspecified)
COc1ccc(NC(=O)c2noc3c2CCC3)cc1
COCc1nnc(NC(=O)C2CC(=O)N(c3ccc(C)c(Cl)c3)C2)s1 (stereo unspecified)
CCOC(=O)C1=C(C)C(c2ccc(OC)cc2)NC(=S)N1 (stereo unspecified)
COc1cc2[nH]c3c(N4CCN(c5ccc(Cl)cc5)CC4)ncnc3c2cc1OC
Cc1ccc(C(=O)OCC(=O)NC2CCCc3ccccc32)o1 (stereo unspecified)
O=C(CN1C(=O)COc2ccccc21)N1CCCC1
COC(=O)c1ccc(C2SCC(=O)N2Cc2ccccc2)cc1 (stereo unspecified)

Potency, active:
O=C(Nc1ccc(Br)cn1)c1coc(=O)c(Br)c1 17.8 µM
COc1ccc(-c2cc3ccccc3oc2=O)cc1NC(=O)c1ccc([N+](=O)[O-])o1 6.31 µM
C(/C=C/c1ccccn1)=C\c1ccccc1 12.6 µM
c1ccc(-n2ncc3c2ncn2nc(-c4ccco4)nc32)cc1 10 µM

— PubChem BioAssay AID624171 (National Center for Advancing Translational Sciences (NCATS), 2012)
